# Data from ChEMBL document CHEMBL4888484, “Replenishing the malaria drug discovery pipeline: Screening and hit evaluation of the MMV Hit Generation Library 1 (HGL1) against asexual blood stage Plasmodium falciparum ,using a nano luciferase reporter read-out” (2022).
# Out of some 150,000 compounds screened, about 540 (0.36%) showed an effect of 50% or more. Some of the results follow.
# Tested on: Plasmodium falciparum
# Assay: Primary screen in NF54 nanoGlo assay, in single point, at 2uM, 72h; a lower Z score goes with more inhibition
# Assay type: functional, Erythrocyte
# Settings: timepoint 72 hour
Compound,% Inhibition,Z score
CCCCN1C(=O)CC[C@@H]2CN(C(=O)c3ccc(=O)[nH]n3)CC[C@@H]21,-2%,0.44
COc1ncccc1NC(=O)N1CCOCC1,-14%,1.73
CCn1c(CC2CCN(C(=O)CCc3c[nH]cn3)CC2)nn(C)c1=O,-13%,1.75
CC(C)n1cc(CN(C)Cc2ccc3c(ccn3C)c2)cn1,3%,-0.4
COC[C@@](C)(O)CNC(=O)NC1CCCCC1,-17%,2.54
CC(C)NC(=O)Nc1ccc(-c2cn3c(n2)CCCC3)cc1,-30%,3.49
Cc1nc2c(s1)CCC[C@@H]2NC(=O)c1cn(C)c(=O)[nH]c1=O,5%,-0.75
CC(Oc1ccc2c(c1)C(c1ccccc1)N(Cc1ccccc1F)CC2)C(=O)NC1CC1 (stereo not given),49%,-5.45
CC(C)c1ccc(C(=O)NC(C)(C)[C@H](O)C(F)(F)F)nc1,8%,-0.96
CC(C)C[C@@H]1N[C@H](C(=O)NCCN2CCCC2)Cc2cn(C)c3cccc1c23,17%,-1.94
Cc1cccc(NC(=O)c2cccc(S(=O)(=O)NCC3CC3)c2)n1,0%,0.03
COc1ccc(S(=O)(=O)N2CCC3(CC2)N[C@@H](CC(C)C)C(=O)N3CC2CC2)cc1,-14%,1.6
C[C@]1(C(=O)Nc2ncccc2O)CCCNC1,-7%,0.93
CC(C)n1cc(C(=O)N(CC2CC2)C[C@H]2CN(C)CCO2)nn1,-8%,1.11
O=C(NCCc1cc(F)c(F)c(F)c1)c1csnn1,-7%,0.85
Cc1cc(N2CCC[C@]3(CCC(=O)N(C4CCCC4)C3)C2)ccn1,9%,-1.46
Cc1n[nH]c(C)c1CCC(=O)NCCC(=O)Nc1ccccc1,-9%,1.36
Cc1cnc([C@@H](C)CNC(=O)Nc2ncnn2C)s1,-12%,1.19
CCS(=O)(=O)CCNC1CCCC1c1ccc(F)cc1 (stereo not given),-1%,0.1
C=C(C)COc1cccc(NC(=O)N2CC(=O)N(CC3CC3)C2)c1,-16%,3.03
CC(C)c1nc(N2CCC(N3CCC[C@H](C(=O)NCc4ccccn4)C3)CC2)no1,-9%,1.8
CCOc1cc(C(=O)N(C)[C@H]2CCCN(C)C2)n[nH]1,-6%,0.88

Compound,% Inhibition,Z score
CC(C)(C(=O)N1C2CCNCC1CC2)C1CCCC1 (stereo not given),13%,-1.94
CCN(C(=O)CCCc1ccccn1)c1ccc(OC)nc1,1%,-0.12
O=C(Nc1ccccc1Cl)OCc1cncs1,36%,-0.86
CC(C)(NC(=O)c1cccc(C(F)F)c1F)[C@@H]1CCCCO1,-6%,0.94
CCc1cc2c(Nc3ccc4c(c3)OCCO4)ncnc2s1,-26%,2.36
COc1ccc(F)cc1C(=O)N1CCC[C@H](c2cnn(C)c2)C1,-13%,1.69
CCc1ccc(CNC(=O)c2cccc(NC(=O)c3nnc(COC)s3)c2)cc1,-8%,0.84
COc1cc(CNCc2ccc(C3OCCO3)cc2)ccc1C,-1%,0.12
c1ccc(-c2nc3c4ccccc4nc(NCc4ccco4)n3n2)cc1,-5%,0.86
COc1ccc(C(=O)NCC(=O)NO[C@@H]2CCCCO2)cc1,1%,-0.15
COc1ccc(CN2CC(=O)N(c3cccc(Cl)c3)C3CS(=O)(=O)CC32)cc1 (stereo not given),-5%,0.65
O=C(NCc1ccc(F)cc1F)C1CCN(c2nc3nc[nH]c(=O)c3s2)CC1,-7%,0.65
Cc1nc(C)c(C)c(N(C)CCC(=O)O)n1,-33%,3.89
Cc1cc(C)nc(NC2CCCCCC2C(N)=O)n1 (stereo not given),4%,-0.58
Cc1ncsc1C(=O)NCC1CN(S(=O)(=O)c2ccccc2)C2CCN1C2 (stereo not given),-13%,1.46
CC(C)c1noc([C@@H]2CCCN2S(=O)(=O)CCOc2ccccc2F)n1,-17%,3.67
CCc1ncnc(NCCCS(C)(=O)=O)c1F,5%,-0.72
COc1ccc(CC(=O)Nc2ccc(N3CCN(C(=O)C4c5ccccc5Oc5ccccc54)CC3)cc2)cc1,10%,-1.66
Cc1c([C@H](C)NCc2nc3ccccc3n2CCC(C)C)cnn1-c1ccccc1,-7%,0.88
O=C(Nc1cc(F)c2nc(N3CCOCC3)ccc2c1)c1ccccc1Cl,-1%,0.16
O=C(c1coc2ccccc12)N1CCCCCCC1,-11%,1.96
CN1CCC(NC(=O)N[C@@H](c2ccccc2)c2ccc(Br)cc2F)CC1,-26%,2.61

Compound,% Inhibition,Z score
O=C(C1CC12CCC2)N1CC2CCC2(Nc2ncnc3scnc23)C1 (stereo not given),-10%,1.07
CCOCCC(=O)Nc1csc2nc(=O)c(C)nn12,-5%,0.73
Cc1cccnc1CC(NC1CCOc2ccccc21)C(F)(F)F (stereo not given),-5%,0.64
CC1CCCCC1NC(=O)CON=C(N)CN1C(C)CCCC1C (stereo not given),-1%,0.19
CC1CCN(c2cc3c(cc2F)c(=O)c(S(=O)(=O)c2cccc(Cl)c2)cn3Cc2ccccc2)CC1,-12%,1.46
COCCn1cc(NC(=O)c2cn3c(n2)C[C@@H](C)CC3)cn1,-9%,0.75
Cc1n[nH]c(C2CC2)c1C(=O)N1CCn2nc(CO)cc2C1,-2%,0.26
CC[C@H]1CN(C)c2ccccc2CN1C(=O)CCS(=O)(=O)c1ccc2c(c1)CCC2,5%,-0.79
Cc1cc(-c2cncc(CN3CCC(C(N)=O)CC3)c2)ccc1F,-2%,0.18
Cc1ccc(-c2nc3ccc(-c4ccccc4Cl)cn3c2CN2CCN(C(=O)Nc3ccccc3C)CC2)cc1,-5%,0.68
C=CCc1cc(C(=O)N2C[C@@H]3CN(CC)C[C@]3(C(=O)O)C2)ccc1OC,-6%,0.76
CC1CN2CCCC2CN1S(=O)(=O)N1CCCCC1 (stereo not given),2%,-0.3
CC(C(=O)NC(c1cccnc1)C1CCOCC1)n1cccn1 (stereo not given),-1%,0.28
O=C(NCc1ccc(Cl)cc1)c1cc(OCc2ccccc2)no1,-7%,1.38
CO[C@H]1CCN(C(=O)c2nn3cc(C)cnc3c2Cl)C1,-17%,1.66
Cc1nc(C)c(F)c(N[C@H]2CCc3nc(C(C)(C)C)cn3C2)n1,-3%,0.24
O=C(NCc1ccccn1)c1ccc(CN2CCOCC2)cc1,35%,-3.98
Cc1cc(C(=O)N2CCc3c(c(C(=O)NCc4nccs4)nn3Cc3ccccc3)C2)nc(C)n1,-7%,0.81
O=c1[nH]c([C@H]2CCC(F)(F)C2)nc2cc(F)ccc12,-19%,1.92
COCCOc1ccc2c(c1)NC(=O)C[C@H]2c1ccc(Cl)s1,-16%,2.79
O=C1NCCC[C@@H]1NC(=O)[C@@H]1CN(C(=O)C2CCCCC2)CCN1C(=O)Nc1ccccc1,36%,-1.3
Cc1[nH]nc(C(=O)N2CCC[C@@H]2CF)c1C,-9%,1.29

Compound,% Inhibition,Z score
O=C(Nc1cnn2c1NCCC2)c1ccc(OCC(=O)N2CCCCC2)cc1,-14%,1.33
CC[C@@]1(C2CCNCC2)NC(=O)N(C/C=C/c2ccccc2)C1=O,-4%,0.6
CC(C)O[C@H]1C[C@@H](NC(=O)c2cnc(-c3cnn(C)c3)s2)C1,-12%,1.49
CC(C)(C)OC(=O)N1CC([C@@H]2CCCNC2=O)C1,-10%,1.73
Cc1nc[nH]c1-c1nccn1Cc1scnc1-c1ccccc1,-12%,1.54
COc1ccc(OC)c(S(=O)(=O)N2C[C@H](CN(C)C)C3(CCCCC3)C2)c1,9%,-1.34
CCOCC(C)CS(=O)(=O)NCCCOCC1CCCO1 (stereo not given),-7%,1.43
O=C(NC[C@H]1CCCO1)Nc1ccnn1C1CCCC1,5%,-0.73
Cc1cc(O)ccc1C(=O)NC[C@@H](C(C)C)N(C)C,1%,-0.18
N#Cc1cccc(NC(=O)Cn2c(=O)n(CCc3cccs3)c(=O)c3ccccc32)c1,30%,-3.37
Clc1cnn(Cc2nc(-c3ccoc3)no2)c1,-21%,2.91
CCOc1cccc2[nH]cc(CCNC(=O)Nc3ccc4[nH]c(=O)[nH]c4c3)c12,3%,-0.29
CC(C)n1cc(-c2c(C(=O)Nc3ccc4c(c3)OC(F)(F)O4)oc3ccccc23)cc(C#N)c1=O,4%,-0.53
CC[C@@H](CC(F)(F)F)NC(=O)c1c(C)n[nH]c1C(C)C,-4%,0.53
Cc1cccc(-n2cc(CN3C[C@@H](CN4CCCCCC4)[C@@H](CO)C3)cn2)c1,-9%,0.97
COc1nccc(C(=O)N[C@H]2CCc3cc(O)ccc3C2)n1,3%,-0.47
CCCS(=O)(=O)N1CCC[C@H]1c1noc(COCCOC)n1,-11%,1.5
CCS(=O)(=O)Oc1ccccc1CN(C(=O)C(C)C)C(C)C,2%,-0.22
COc1ccc(NC(=O)N(Cc2ccncc2)C2CC2)cn1,-21%,1.79
